These are yes or no findings as the source states them, for the method shown. In cells and extracts the contact can be indirect. Some results given as binding are weak or reduced against the parent protein; the word gives no strength. Sequences can lack the tags named with a protein.

These results are taken from PMC10315710, “Diacylglycerol kinase ζ interacts with sphingomyelin synthase 1 and sphingomyelin synthase‐related protein via different regions” (FEBS Open Bio, 2023).

What all share (experiment): co-IP; HEK293 cell lysates expressing V5-tagged SMS1, SMS2 or SMSr and 3×FLAG-tagged DGK isozymes; immunoprecipitation with anti-V5 antibody and Protein A/G PLUS-agarose; western blot with anti-FLAG and anti-V5
The target of experiment [1] is T1, SMS1‐V5 (C-terminal V5-tagged human sphingomyelin synthase 1) (human) (UniProt Q86VZ5).
T1 sequence: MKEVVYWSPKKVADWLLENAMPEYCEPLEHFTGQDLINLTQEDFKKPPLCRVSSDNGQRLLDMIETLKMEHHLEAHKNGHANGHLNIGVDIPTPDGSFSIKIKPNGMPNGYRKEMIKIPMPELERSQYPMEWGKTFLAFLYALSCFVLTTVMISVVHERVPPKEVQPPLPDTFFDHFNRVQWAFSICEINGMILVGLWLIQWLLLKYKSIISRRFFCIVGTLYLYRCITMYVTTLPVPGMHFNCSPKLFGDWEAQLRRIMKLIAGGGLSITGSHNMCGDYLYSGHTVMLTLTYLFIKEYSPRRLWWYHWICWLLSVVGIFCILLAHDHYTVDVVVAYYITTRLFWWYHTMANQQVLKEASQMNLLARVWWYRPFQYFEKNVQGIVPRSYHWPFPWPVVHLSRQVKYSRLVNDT

Experiment [2] has as its target T2, SMS2‐V5 (C-terminal V5-tagged human sphingomyelin synthase 2) (human) (UniProt Q8NHU3).
T2 sequence: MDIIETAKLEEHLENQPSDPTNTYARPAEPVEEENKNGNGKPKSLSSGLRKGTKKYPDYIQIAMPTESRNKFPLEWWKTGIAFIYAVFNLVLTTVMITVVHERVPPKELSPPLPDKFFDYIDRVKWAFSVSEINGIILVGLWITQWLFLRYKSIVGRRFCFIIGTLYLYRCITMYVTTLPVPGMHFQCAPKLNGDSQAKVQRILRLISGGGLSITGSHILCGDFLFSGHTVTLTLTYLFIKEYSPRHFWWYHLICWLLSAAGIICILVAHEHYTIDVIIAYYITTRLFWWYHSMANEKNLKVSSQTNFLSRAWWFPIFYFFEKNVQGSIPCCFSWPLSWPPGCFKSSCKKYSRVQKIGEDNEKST

In experiment [3] the target is T3, SMSr‐V5 (C-terminal V5-tagged human sphingomyelin synthase-related protein) (human) (UniProt Q96LT4).
T3 sequence: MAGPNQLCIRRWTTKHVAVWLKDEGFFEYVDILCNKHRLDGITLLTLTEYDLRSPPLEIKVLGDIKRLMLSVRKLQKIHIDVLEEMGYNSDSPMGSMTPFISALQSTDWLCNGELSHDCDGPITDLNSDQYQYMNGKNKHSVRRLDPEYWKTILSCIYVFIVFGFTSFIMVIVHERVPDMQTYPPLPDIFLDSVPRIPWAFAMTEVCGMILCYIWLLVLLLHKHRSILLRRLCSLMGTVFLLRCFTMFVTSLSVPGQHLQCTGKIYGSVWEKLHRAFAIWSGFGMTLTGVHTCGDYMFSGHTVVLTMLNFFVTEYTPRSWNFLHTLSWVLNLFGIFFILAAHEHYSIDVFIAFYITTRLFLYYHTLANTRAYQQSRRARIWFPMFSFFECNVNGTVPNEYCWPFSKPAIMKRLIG

B1: 3×FLAG‐DGKδ1 (enzyme, UniProt Q16760-2 1-1170)
chain: MNMFLYFQTIIKEGMLTKQNNSFQRSKRRYFKLRGRTLYYAKTAKSIIFDEVDLTDASVAESSTKNVNNSFTVITPCRKLILCADNRKEMEDWIAALKTVQNREHFEPTQYSMDHFSGMHNWYACSHARPTYCNVCREALSGVTSHGLSCEVCKFKAHKRCAVRATNNCKWTTLASIGKDIIEDADGIAMPHQWLEGNLPVSAKCTVCDKTCGSVLRLQDWRCLWCKAMVHTSCKESLLTKCPLGLCKVSVIPPTALNSIDSDGFWKASCPPSCTSPLLVFVNSKSGDNQGVKFLRRFKQLLNPAQVFDLMNGGPHLGLRLFQKFDTFRILVCGGDGSVGWVLSEIDSLNLHKQCQLGVLPLGTGNDLARVLGWGSACDDDTQLPQILEKLERASTKMLDRWSVMAYEAKLPRQASSSTVTEDFSEDSEVQQILFYEDSVAAHLSKILTSDQHSVVISSAKVLCETVKDFVARVGKAYEKTTESSEESEVMAKKCSVLKEKLDSLLKTLDDESQASSSLPNPPPTIAEEAEDGDGSGSICGSTGDRLVASACPARPQIFRPREQLMLRANSLKKAIRQIIEHTEKAVDEQNAQTQEQEGFVLGLSESEEKMDHRVCPPLSHSESFGVPKGRSQRKVSKSPCEKLISKGSLSLGSSASLPPQPGSRDGLPALNTKILYPNVRAGMSGSLPGGSVISRLLINADPFNSEPETLEYYTEKCVMNNYFGIGLDAKISLDFNNKRDEHPEKCRSRTKNMMWYGVLGTKELLHRTYKNLEQKVLLECDGRPIPLPSLQGIAVLNIPSYAGGTNFWGGTKEDDTFAAPSFDDKILEVVAVFGSMQMAVSRVIRLQHHRIAQCRTVKISILGDEGVPVQVDGEAWVQPPGYIRIVHKNRAQTLTRDRAFESTLKSWEDKQKCELPRPPSCSLHPEMLSEEEATQMDQFGQAAGVLIHSIREIAQSHRDMEQELAHAVNASSKSMDRVYGKPRTTEGLNCSFVLEMVNNFRALRSETELLLSGKMALQLDPPQKEQLGSALAEMDRQLRRLADTPWLCQSAEPGDEESVMLDLAKRSRSGKFRLVTKFKKEKNNKNKEAHSSLGAPVHLWGTEEVAAWLEHLSLCEYKDIFTRHDIRGSELLHLERRDLKDLGVTKVGHMKRILCGIKELSRSAPAVEA
Turning to B1, the binding entry in experiment [1] is on record as “no binding”; in experiment [2], “no binding”; in experiment [3], “binds”.

B2: 3×FLAG‐DGKδ2 (enzyme, UniProt Q16760-1 1-1214)
chain: MAAAAGAPPPGPPQPPPPPPPEESSDSEPEAEPGSPQKLIRKVSTSGQIRQKTIIKEGMLTKQNNSFQRSKRRYFKLRGRTLYYAKTAKSIIFDEVDLTDASVAESSTKNVNNSFTVITPCRKLILCADNRKEMEDWIAALKTVQNREHFEPTQYSMDHFSGMHNWYACSHARPTYCNVCREALSGVTSHGLSCEVCKFKAHKRCAVRATNNCKWTTLASIGKDIIEDADGIAMPHQWLEGNLPVSAKCTVCDKTCGSVLRLQDWRCLWCKAMVHTSCKESLLTKCPLGLCKVSVIPPTALNSIDSDGFWKASCPPSCTSPLLVFVNSKSGDNQGVKFLRRFKQLLNPAQVFDLMNGGPHLGLRLFQKFDTFRILVCGGDGSVGWVLSEIDSLNLHKQCQLGVLPLGTGNDLARVLGWGSACDDDTQLPQILEKLERASTKMLDRWSVMAYEAKLPRQASSSTVTEDFSEDSEVQQILFYEDSVAAHLSKILTSDQHSVVISSAKVLCETVKDFVARVGKAYEKTTESSEESEVMAKKCSVLKEKLDSLLKTLDDESQASSSLPNPPPTIAEEAEDGDGSGSICGSTGDRLVASACPARPQIFRPREQLMLRANSLKKAIRQIIEHTEKAVDEQNAQTQEQEGFVLGLSESEEKMDHRVCPPLSHSESFGVPKGRSQRKVSKSPCEKLISKGSLSLGSSASLPPQPGSRDGLPALNTKILYPNVRAGMSGSLPGGSVISRLLINADPFNSEPETLEYYTEKCVMNNYFGIGLDAKISLDFNNKRDEHPEKCRSRTKNMMWYGVLGTKELLHRTYKNLEQKVLLECDGRPIPLPSLQGIAVLNIPSYAGGTNFWGGTKEDDTFAAPSFDDKILEVVAVFGSMQMAVSRVIRLQHHRIAQCRTVKISILGDEGVPVQVDGEAWVQPPGYIRIVHKNRAQTLTRDRAFESTLKSWEDKQKCELPRPPSCSLHPEMLSEEEATQMDQFGQAAGVLIHSIREIAQSHRDMEQELAHAVNASSKSMDRVYGKPRTTEGLNCSFVLEMVNNFRALRSETELLLSGKMALQLDPPQKEQLGSALAEMDRQLRRLADTPWLCQSAEPGDEESVMLDLAKRSRSGKFRLVTKFKKEKNNKNKEAHSSLGAPVHLWGTEEVAAWLEHLSLCEYKDIFTRHDIRGSELLHLERRDLKDLGVTKVGHMKRILCGIKELSRSAPAVEA
For B2, the binding entry in experiment [1] is listed as “no binding”; in experiment [2], “no binding”; in experiment [3] it was “binds”.

B3: 3×FLAG‐DGKη2 (enzyme, UniProt Q86XP1 1-1220)
chain: MAGAGGQHHPPGAAGGAAAGAGAAVTSAAASAGPGEDSSDSEAEQEGPQKLIRKVSTSGQIRTKTSIKEGQLLKQTSSFQRWKKRYFKLRGRTLYYAKDSKSLIFDEVDLSDASVAEASTKNANNSFTIITPFRRLMLCAENRKEMEDWISSLKSVQTREPYEVAQFNVEHFSGMHNWYACSHARPTFCNVCRESLSGVTSHGLSCEVCKFKAHKRCAVRATNNCKWTTLASIGKDIIEDEDGVAMPHQWLEGNLPVSAKCAVCDKTCGSVLRLQDWKCLWCKTMVHTACKDLYHPICPLGQCKVSIIPPIALNSTDSDGFCRATFSFCVSPLLVFVNSKSGDNQGVKFLRRFKQLLNPAQVFDLMNGGPHLGLRLFQKFDNFRILVCGGDGSVGWVLSEIDKLNLNKQCQLGVLPLGTGNDLARVLGWGGSYDDDTQLPQILEKLERASTKMLDRWSIMTYELKLPPKASLLPGPPEASEEFYMTIYEDSVATHLTKILNSDEHAVVISSAKTLCETVKDFVAKVEKTYDKTLENAVVADAVASKCSVLNEKLEQLLQALHTDSQAAPVLPGLSPLIVEEDAVESSSEESLGESKEQLGDDVTKPSSQKAVKPREIMLRANSLKKAVRQVIEEAGKVMDDPTVHPCEPANQSSDYDSTETDESKEEAKDDGAKESITVKTAPRSPDARASYGHSQTDSVPGPAVAASKENLPVLNTRIICPGLRAGLAASIAGSSIINKMLLANIDPFGATPFIDPDLDSVDGYSEKCVMNNYFGIGLDAKISLEFNNKREEHPEKCRSRTKNLMWYGVLGTRELLQRSYKNLEQRVQLECDGQYIPLPSLQGIAVLNIPSYAGGTNFWGGTKEDDIFAAPSFDDKILEVVAIFDSMQMAVSRVIKLQHHRIAQCRTVKITIFGDEGVPVQVDGEAWVQPPGIIKIVHKNRAQMLTRDRAFESTLKSWEDKQKCDSGKPVLRTHLYIHHAIDLATEEVSQMQLCSQAAEELITRICDAATIHCLLEQELAHAVNACSHALNKANPRCPESLTRDTATEIAINVKALYNETESLLVGRVPLQLESPHEERVSNALHSVEVELQKLTEIPWLYYILHPNEDEEPPMDCTKRNNRSTVFRIVPKFKKEKVQKQKTSSQPVQKWGTEEVAAWLDLLNLGEYKDIFIRHDIRGAELLHLERRDLKDLGIPKVGHVKRILQGIKELGRSTPQSEV
Regarding B3, the binding entry in experiment [1], in experiment [2] and in experiment [3] was “no binding” throughout.
